Here are results for two molecules from patent US20240270861A1.

For the test, the target named is poly-specificity reagent (PSR): detergent solubilized CHO cell membrane proteins. Briefly: PSR assay: molecule on protein A beads, biotinylated PSR, SA-PE read out by flow cytometry; + PSR panel.

Numbering of substitutions follows the chain as printed.

B1: AB1080 multispecific binding protein (bispecific antibody, V domains shown)
VH: EVQLVQSGGGVVQPGRSLRLSCAASGFTFSSYGMHWVRQAPGKCLEWVAVIWYDASNKYYGDSVKGRFTISRDNSKNTLYLQMNSLRDEDTAVYYCARRFTHLRGWYIEDYGLDVWGQGTTVTVSS
VL: EIVLTQSPSSLSASVGDRVTIT[in this place about 80 residues]FGCGTKVEIK
As for B1, the % of events in quadrant Q2 (PSR binding+) was 0.15%.

B2: AB1081 multispecific binding protein (bispecific antibody, V domains shown)
VH: B1 VH with T28A, A55E, K76R, H102N, Y107I
VL: EIVLTQSPSSLSASVGDRVTIT[in this place about 80 residues]FGCGTKVEIK
As for B2, the % of events in quadrant Q2 (PSR binding+) is 18.1%.
